Results are given in words; binding and its absence hold for the method and conditions named. In cells and extracts the contact can be indirect. Some results given as binding are weak or reduced against the parent protein; the word gives no strength. For some assays here: Sequences can lack the tags named with a protein.
Experiments:
[1] = target: T1, KSHV ORF57-Flag (wild type, pVM7) (Kaposi's sarcoma-associated herpesvirus (KSHV)) (UniProt Q2HR75); assay: co-IP; lysates of HEK293 or HeLa cells transfected with Flag-tagged ORF57 wt or mt (arsenite-treated cells by the legend's title for A-C), digested with RNase A/T1; IP with mouse anti-Flag (Fig 5E left panel: rabbit anti-ORF57); blots for endogenous proteins; IP buffer 50 mM HEPES pH 7.5, 200 mM NaCl, overnight 4°C
T1 sequence: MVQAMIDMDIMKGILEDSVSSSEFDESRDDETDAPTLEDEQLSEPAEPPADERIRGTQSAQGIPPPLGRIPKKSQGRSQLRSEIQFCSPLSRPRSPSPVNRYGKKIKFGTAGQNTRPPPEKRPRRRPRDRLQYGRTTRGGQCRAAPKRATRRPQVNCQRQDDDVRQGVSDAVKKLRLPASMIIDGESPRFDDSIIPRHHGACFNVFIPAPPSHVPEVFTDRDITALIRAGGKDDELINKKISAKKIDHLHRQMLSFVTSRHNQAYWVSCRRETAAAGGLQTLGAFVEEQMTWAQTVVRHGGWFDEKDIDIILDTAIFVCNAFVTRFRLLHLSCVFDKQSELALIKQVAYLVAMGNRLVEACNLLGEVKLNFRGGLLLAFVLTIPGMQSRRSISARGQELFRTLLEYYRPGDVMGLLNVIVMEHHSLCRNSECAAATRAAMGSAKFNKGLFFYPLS

By UniProt entry, the sequences of proteins in these tests, tags left out. Where a name states a change or a piece, a line headed by the entry shows the natural chain unless it says otherwise. Chains listed by the source or under a name are the forms on record and can include a tag or linker.
UniProt P19525: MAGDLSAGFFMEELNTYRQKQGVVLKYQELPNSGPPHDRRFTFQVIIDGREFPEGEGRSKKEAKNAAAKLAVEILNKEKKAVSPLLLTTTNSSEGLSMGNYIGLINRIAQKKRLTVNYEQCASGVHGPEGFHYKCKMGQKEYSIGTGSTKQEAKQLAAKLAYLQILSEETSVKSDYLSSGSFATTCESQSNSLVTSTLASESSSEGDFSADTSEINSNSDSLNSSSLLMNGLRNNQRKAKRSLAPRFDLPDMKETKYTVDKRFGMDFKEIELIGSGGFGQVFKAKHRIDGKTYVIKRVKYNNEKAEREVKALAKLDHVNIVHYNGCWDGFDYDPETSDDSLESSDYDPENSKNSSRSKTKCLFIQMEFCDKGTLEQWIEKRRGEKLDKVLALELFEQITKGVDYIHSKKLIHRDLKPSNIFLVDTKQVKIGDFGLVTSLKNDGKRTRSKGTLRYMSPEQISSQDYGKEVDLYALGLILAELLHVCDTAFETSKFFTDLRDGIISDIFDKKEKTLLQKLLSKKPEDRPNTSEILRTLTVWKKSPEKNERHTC
PKR ΔRBM-Myc-Flag (aa 1-12/153-551) (P19525, form named): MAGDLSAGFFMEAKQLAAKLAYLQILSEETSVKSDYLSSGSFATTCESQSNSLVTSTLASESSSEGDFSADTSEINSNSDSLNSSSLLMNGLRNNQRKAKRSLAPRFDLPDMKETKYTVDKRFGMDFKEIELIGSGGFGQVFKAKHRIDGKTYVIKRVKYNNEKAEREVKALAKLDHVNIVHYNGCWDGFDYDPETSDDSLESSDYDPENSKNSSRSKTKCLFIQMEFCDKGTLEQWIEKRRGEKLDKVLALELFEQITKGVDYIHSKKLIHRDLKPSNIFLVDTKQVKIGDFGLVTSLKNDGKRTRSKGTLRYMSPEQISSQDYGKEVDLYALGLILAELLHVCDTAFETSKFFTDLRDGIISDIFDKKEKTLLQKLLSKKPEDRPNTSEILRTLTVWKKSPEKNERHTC
UniProt P11940: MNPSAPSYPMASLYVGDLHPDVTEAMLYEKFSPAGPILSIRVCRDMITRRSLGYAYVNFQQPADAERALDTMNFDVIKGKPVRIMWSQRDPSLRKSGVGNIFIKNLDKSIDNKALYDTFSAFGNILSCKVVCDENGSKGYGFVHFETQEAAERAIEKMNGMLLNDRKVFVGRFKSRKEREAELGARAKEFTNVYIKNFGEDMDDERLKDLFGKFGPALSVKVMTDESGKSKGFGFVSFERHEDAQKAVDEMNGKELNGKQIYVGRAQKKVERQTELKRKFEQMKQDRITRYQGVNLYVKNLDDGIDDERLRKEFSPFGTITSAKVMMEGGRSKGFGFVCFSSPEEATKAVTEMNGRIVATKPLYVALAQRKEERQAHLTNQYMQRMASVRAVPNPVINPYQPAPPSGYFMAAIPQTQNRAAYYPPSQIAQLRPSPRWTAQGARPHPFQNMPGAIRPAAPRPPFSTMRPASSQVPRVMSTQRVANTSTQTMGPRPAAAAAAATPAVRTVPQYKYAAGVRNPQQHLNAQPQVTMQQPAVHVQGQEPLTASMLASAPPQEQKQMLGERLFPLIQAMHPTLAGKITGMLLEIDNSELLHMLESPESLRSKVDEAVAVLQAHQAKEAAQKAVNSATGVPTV
UniProt Q04637: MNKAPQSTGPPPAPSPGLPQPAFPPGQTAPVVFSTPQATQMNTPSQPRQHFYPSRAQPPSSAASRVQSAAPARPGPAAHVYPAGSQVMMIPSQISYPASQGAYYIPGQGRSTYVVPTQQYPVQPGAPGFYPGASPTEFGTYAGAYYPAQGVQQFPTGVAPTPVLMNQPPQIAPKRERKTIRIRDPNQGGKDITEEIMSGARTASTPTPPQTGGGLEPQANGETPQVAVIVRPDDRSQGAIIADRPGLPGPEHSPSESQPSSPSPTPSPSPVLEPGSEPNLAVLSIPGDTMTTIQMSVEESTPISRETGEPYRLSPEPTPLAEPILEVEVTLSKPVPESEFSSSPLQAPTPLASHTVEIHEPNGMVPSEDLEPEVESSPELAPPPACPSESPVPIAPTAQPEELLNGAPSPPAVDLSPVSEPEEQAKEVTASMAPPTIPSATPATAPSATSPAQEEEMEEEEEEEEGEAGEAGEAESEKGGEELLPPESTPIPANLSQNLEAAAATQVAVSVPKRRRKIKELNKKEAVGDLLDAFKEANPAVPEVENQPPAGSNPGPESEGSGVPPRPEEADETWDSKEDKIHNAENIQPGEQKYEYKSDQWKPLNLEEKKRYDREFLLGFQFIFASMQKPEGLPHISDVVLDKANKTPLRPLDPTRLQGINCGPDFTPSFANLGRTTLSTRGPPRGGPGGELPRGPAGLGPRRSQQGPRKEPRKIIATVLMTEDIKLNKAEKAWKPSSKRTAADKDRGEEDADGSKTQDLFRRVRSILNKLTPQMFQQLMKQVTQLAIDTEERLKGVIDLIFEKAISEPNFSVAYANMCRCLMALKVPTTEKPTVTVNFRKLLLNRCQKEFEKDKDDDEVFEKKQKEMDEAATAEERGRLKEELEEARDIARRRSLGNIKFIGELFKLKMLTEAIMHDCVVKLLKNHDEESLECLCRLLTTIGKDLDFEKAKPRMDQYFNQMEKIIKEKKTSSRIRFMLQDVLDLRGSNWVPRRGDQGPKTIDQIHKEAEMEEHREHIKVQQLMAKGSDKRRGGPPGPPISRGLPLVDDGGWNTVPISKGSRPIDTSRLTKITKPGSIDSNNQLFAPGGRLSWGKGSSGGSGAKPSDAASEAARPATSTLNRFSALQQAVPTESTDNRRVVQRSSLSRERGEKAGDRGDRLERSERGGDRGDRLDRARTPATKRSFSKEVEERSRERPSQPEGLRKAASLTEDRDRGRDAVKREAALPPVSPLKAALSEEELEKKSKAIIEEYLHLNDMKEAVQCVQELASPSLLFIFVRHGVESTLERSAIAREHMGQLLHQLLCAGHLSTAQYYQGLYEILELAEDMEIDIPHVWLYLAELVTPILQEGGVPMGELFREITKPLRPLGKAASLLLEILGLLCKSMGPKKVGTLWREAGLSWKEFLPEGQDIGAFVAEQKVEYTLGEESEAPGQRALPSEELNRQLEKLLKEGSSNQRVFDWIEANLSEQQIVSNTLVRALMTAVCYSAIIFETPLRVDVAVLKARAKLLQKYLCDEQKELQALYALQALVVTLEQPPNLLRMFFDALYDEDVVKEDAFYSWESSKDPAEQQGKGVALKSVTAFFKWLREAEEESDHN
UniProt Q13283: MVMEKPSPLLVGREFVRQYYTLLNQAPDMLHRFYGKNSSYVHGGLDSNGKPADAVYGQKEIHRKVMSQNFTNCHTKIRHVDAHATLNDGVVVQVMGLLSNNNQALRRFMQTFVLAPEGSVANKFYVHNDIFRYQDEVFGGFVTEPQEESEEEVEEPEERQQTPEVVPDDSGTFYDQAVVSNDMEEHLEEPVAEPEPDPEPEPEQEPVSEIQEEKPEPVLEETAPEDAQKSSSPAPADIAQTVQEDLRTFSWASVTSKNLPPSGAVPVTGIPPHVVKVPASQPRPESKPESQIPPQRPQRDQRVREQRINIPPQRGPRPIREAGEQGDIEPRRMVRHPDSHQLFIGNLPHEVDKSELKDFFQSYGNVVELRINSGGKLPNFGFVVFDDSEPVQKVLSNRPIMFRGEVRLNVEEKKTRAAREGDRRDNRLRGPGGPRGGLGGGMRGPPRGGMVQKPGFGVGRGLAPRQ
UniProt P05198: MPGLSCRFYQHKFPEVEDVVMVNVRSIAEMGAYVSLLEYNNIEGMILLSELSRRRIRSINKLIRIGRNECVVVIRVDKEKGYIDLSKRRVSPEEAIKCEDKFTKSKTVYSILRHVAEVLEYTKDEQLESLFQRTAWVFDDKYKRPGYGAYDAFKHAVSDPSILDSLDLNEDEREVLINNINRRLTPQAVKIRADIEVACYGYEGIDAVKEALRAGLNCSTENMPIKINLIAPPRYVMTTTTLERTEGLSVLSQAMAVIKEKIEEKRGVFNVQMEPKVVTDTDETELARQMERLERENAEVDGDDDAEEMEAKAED

[2] = target: T2, KSHV ORF57, untagged (pcDNA-ORF57) (Kaposi's sarcoma-associated herpesvirus (KSHV)) (UniProt Q2HR75); assay: co-IP; HEK293 extract with Myc-Flag-PACT or a deletion mutant mixed with lysate with untagged ORF57, RNase A/T1-digested; IP with polyclonal rabbit anti-ORF57 beads (Fig 6C)
T2 sequence: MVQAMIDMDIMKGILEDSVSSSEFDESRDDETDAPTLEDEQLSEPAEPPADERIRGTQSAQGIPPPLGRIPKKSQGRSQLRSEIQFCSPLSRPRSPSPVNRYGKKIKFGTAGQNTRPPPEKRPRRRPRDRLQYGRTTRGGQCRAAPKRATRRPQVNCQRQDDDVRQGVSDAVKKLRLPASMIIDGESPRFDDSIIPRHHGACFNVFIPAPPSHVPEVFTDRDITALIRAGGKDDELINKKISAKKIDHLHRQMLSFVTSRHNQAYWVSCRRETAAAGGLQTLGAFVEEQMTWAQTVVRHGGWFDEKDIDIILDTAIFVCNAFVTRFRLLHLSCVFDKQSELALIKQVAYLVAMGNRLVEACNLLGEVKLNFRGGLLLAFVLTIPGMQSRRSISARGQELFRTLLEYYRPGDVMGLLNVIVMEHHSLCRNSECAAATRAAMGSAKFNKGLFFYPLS

[3] = target: T3, KSHV ORF57 expressed from the virus in BCBL-1 cells with lytic infection (Kaposi's sarcoma-associated herpesvirus (KSHV), in BCBL-1 cells) (UniProt Q2HR75); assay: co-IP; extracts of BCBL-1 cells induced with valproic acid for 24 h, RNase A/T1-treated; IP with polyclonal rabbit anti-ORF57, non-specific rabbit IgG as control; blots for endogenous PKR and PACT
T3 sequence: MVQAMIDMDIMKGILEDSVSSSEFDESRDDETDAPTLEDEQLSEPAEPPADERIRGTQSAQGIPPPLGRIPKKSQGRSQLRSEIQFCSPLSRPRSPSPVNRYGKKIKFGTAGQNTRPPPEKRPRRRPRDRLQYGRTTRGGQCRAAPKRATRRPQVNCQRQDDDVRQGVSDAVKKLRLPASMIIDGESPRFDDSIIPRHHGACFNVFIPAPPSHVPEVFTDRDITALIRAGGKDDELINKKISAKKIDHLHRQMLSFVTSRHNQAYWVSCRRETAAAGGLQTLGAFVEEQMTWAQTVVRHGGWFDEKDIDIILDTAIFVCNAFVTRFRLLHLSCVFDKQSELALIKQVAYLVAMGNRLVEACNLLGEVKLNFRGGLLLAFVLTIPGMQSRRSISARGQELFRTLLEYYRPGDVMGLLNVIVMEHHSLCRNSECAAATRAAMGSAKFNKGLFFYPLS

[4] = target: PKR ΔRBM-Myc-Flag (aa 1-12/153-551) (UniProt P19525); assay: co-IP; HEK293 extract with Myc-Flag-tagged PKR FL, ΔPK or ΔRBM mixed with extract with untagged ORF57, RNase A/T1-digested; IP with anti-Flag for PKR; blot anti-ORF57
[5] = target: full-length PKR-Myc-Flag (pPKR-FL) (UniProt P19525); assay: as above
[6] = target: T4, full-length PACT-Myc-Flag (pPACT-FL) (UniProt O75569); assay: co-IP; HEK293 extract with Myc-Flag-PACT or a deletion mutant mixed with lysate with untagged ORF57, RNase A/T1-digested; IP with anti-Flag M2 beads (Fig 6B, 6D)
T4 sequence: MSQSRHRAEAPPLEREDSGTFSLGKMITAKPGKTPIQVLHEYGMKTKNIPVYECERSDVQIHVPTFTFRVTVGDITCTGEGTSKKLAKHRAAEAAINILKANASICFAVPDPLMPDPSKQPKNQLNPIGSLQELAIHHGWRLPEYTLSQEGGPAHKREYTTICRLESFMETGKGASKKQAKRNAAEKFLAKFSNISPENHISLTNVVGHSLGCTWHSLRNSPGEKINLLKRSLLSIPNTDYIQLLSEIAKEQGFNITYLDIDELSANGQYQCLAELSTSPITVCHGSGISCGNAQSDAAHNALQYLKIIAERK

[7] = target: T5, PACT-ΔPAD-Myc-Flag (Δ3, aa 1-239) (UniProt O75569); assay: as above
T5 sequence: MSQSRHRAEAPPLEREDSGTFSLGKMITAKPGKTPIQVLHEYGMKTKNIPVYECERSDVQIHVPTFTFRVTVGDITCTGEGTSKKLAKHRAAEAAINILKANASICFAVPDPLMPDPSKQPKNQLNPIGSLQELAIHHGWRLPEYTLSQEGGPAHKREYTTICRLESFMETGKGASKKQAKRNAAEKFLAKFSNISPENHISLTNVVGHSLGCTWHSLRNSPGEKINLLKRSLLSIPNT

[8] = target: PACT-Δ1,2-Myc-Flag (deletion of RBM1 and RBM2) (UniProt O75569); assay: as above
[9] = target: PACT-Δ1-Myc-Flag (deletion of RBM1) (UniProt O75569); assay: as above
[10] = target: PACT-Δ2-Myc-Flag (deletion of RBM2) (UniProt O75569); assay: as above
[11] = target: protein kinase R (PKR), endogenous (human (endogenous in HEK293, HeLa, BCBL-1)) (UniProt P19525); assay: co-IP; RNase A/T1-treated extracts of HEK293 cells transfected with empty vector, ORF57-wt-Flag or ORF57-mt-Flag (arsenite-treated); IP with anti-PKR; blots for ORF57 (anti-Flag) and PACT
[12] = target: T6, PKR-activating protein (PACT), endogenous (human (endogenous in HEK293, HeLa, BCBL-1)) (UniProt O75569); assay: co-IP; RNase A/T1-treated extracts of HEK293 cells transfected with empty vector, ORF57-wt-Flag or ORF57-mt-Flag (arsenite-treated); IP with anti-PACT; blots for ORF57 (anti-Flag) and PKR
T6 sequence: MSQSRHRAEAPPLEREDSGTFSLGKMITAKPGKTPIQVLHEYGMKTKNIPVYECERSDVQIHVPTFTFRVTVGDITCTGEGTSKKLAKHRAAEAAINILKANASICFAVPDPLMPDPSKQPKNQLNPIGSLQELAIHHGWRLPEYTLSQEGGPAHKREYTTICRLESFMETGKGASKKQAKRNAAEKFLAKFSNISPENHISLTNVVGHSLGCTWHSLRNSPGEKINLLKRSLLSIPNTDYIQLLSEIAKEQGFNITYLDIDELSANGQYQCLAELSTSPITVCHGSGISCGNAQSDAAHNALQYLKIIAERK

[13] = target: full-length PKR-Myc-Flag (pPKR-FL) (UniProt P19525); assay: co-IP; extract of HEK293 cells with PKR-Myc-Flag, untreated or treated with arsenite for 30 min, mixed with HEK293 extract with ORF57-Flag, RNase A/T1-digested; pulled down with anti-Myc beads; blots anti-Flag, anti-pPKR (Thr 451), anti-ORF57

PABPC1, endogenous (from UniProt P11940 1-636)
binding [1]: binds

eIF4G1, endogenous (from UniProt Q04637 1-1599)
binding [1]: no binding

G3BP1, endogenous (from UniProt Q13283 1-466)
binding [1]: no binding

PACT-Δ1-Myc-Flag (deletion of RBM1) (from UniProt O75569 1-313)
binding [2]: binds

PACT-Δ2-Myc-Flag (deletion of RBM2) (from UniProt O75569 1-313)
binding [2]: binds

protein kinase R (PKR), endogenous (from UniProt P19525 1-551) (enzyme)
binding [3]: binds
binding [1]: binds

eIF2α, endogenous (from UniProt P05198 1-315)
binding [1]: no binding

B1: PKR-activating protein (PACT), endogenous (protein, UniProt O75569 1-313)
chain: MSQSRHRAEAPPLEREDSGTFSLGKMITAKPGKTPIQVLHEYGMKTKNIPVYECERSDVQIHVPTFTFRVTVGDITCTGEGTSKKLAKHRAAEAAINILKANASICFAVPDPLMPDPSKQPKNQLNPIGSLQELAIHHGWRLPEYTLSQEGGPAHKREYTTICRLESFMETGKGASKKQAKRNAAEKFLAKFSNISPENHISLTNVVGHSLGCTWHSLRNSPGEKINLLKRSLLSIPNTDYIQLLSEIAKEQGFNITYLDIDELSANGQYQCLAELSTSPITVCHGSGISCGNAQSDAAHNALQYLKIIAERK
binding [3]: binds
binding [1]: binds

B2: KSHV ORF57, untagged (pcDNA-ORF57) (natural protein)
chain: MVQAMIDMDIMKGILEDSVSSSEFDESRDDETDAPTLEDEQLSEPAEPPADERIRGTQSAQGIPPPLGRIPKKSQGRSQLRSEIQFCSPLSRPRSPSPVNRYGKKIKFGTAGQNTRPPPEKRPRRRPRDRLQYGRTTRGGQCRAAPKRATRRPQVNCQRQDDDVRQGVSDAVKKLRLPASMIIDGESPRFDDSIIPRHHGACFNVFIPAPPSHVPEVFTDRDITALIRAGGKDDELINKKISAKKIDHLHRQMLSFVTSRHNQAYWVSCRRETAAAGGLQTLGAFVEEQMTWAQTVVRHGGWFDEKDIDIILDTAIFVCNAFVTRFRLLHLSCVFDKQSELALIKQVAYLVAMGNRLVEACNLLGEVKLNFRGGLLLAFVLTIPGMQSRRSISARGQELFRTLLEYYRPGDVMGLLNVIVMEHHSLCRNSECAAATRAAMGSAKFNKGLFFYPLS
notes: KSHV ORF57, untagged, expressed from pcDNA-ORF57; also called untagged ORF57; source: HEK293, transfected, in lysate
binding [4]: no binding
binding [5]: binds
binding [6]: binds
binding [7]: binds
binding [8]: no binding
binding [9]: binds
binding [10]: binds

B3: full-length PACT-Myc-Flag (pPACT-FL) (protein, UniProt O75569 1-313)
chain: MSQSRHRAEAPPLEREDSGTFSLGKMITAKPGKTPIQVLHEYGMKTKNIPVYECERSDVQIHVPTFTFRVTVGDITCTGEGTSKKLAKHRAAEAAINILKANASICFAVPDPLMPDPSKQPKNQLNPIGSLQELAIHHGWRLPEYTLSQEGGPAHKREYTTICRLESFMETGKGASKKQAKRNAAEKFLAKFSNISPENHISLTNVVGHSLGCTWHSLRNSPGEKINLLKRSLLSIPNTDYIQLLSEIAKEQGFNITYLDIDELSANGQYQCLAELSTSPITVCHGSGISCGNAQSDAAHNALQYLKIIAERK
binding [2]: binds

B4: PACT-ΔPAD-Myc-Flag (Δ3, aa 1-239) (domain or fragment, UniProt O75569 1-239)
chain: MSQSRHRAEAPPLEREDSGTFSLGKMITAKPGKTPIQVLHEYGMKTKNIPVYECERSDVQIHVPTFTFRVTVGDITCTGEGTSKKLAKHRAAEAAINILKANASICFAVPDPLMPDPSKQPKNQLNPIGSLQELAIHHGWRLPEYTLSQEGGPAHKREYTTICRLESFMETGKGASKKQAKRNAAEKFLAKFSNISPENHISLTNVVGHSLGCTWHSLRNSPGEKINLLKRSLLSIPNT
binding [2]: binds

B5: KSHV ORF57-Flag (wild type, pVM7) (natural protein)
chain: MVQAMIDMDIMKGILEDSVSSSEFDESRDDETDAPTLEDEQLSEPAEPPADERIRGTQSAQGIPPPLGRIPKKSQGRSQLRSEIQFCSPLSRPRSPSPVNRYGKKIKFGTAGQNTRPPPEKRPRRRPRDRLQYGRTTRGGQCRAAPKRATRRPQVNCQRQDDDVRQGVSDAVKKLRLPASMIIDGESPRFDDSIIPRHHGACFNVFIPAPPSHVPEVFTDRDITALIRAGGKDDELINKKISAKKIDHLHRQMLSFVTSRHNQAYWVSCRRETAAAGGLQTLGAFVEEQMTWAQTVVRHGGWFDEKDIDIILDTAIFVCNAFVTRFRLLHLSCVFDKQSELALIKQVAYLVAMGNRLVEACNLLGEVKLNFRGGLLLAFVLTIPGMQSRRSISARGQELFRTLLEYYRPGDVMGLLNVIVMEHHSLCRNSECAAATRAAMGSAKFNKGLFFYPLS
notes: KSHV ORF57 (mRNA transcript accumulation protein, MTA), wild type, expressed from pVM7; also called ORF57 wt; ORF57-wt-Flag; source: HEK293 or HeLa, transfected, in lysate
binding [11]: binds
binding [12]: binds
binding [13]: binds

B6: TIA-1, endogenous (protein, UniProt P31483 1-386)
chain: MEDEMPKTLYVGNLSRDVTEALILQLFSQIGPCKNCKMIMDTAGNDPYCFVEFHEHRHAAAALAAMNGRKIMGKEVKVNWATTPSSQKKDTSSSTVVSTQRSQDHFHVFVGDLSPEITTEDIKAAFAPFGRISDARVVKDMATGKSKGYGFVSFFNKWDAENAIQQMGGQWLGGRQIRTNWATRKPPAPKSTYESNTKQLSYDEVVNQSSPSNCTVYCGGVTSGLTEQLMRQTFSPFGQIMEIRVFPDKGYSFVRFNSHESAAHAIVSVNGTTIEGHVVKCYWGKETLDMINPVQQQNQIGYPQPYGQWGQWYGNAQQIGQYMPNGWQVPAYGMYGQAWNQQGFNQTQSSAPWMGPNYGVQPPQGQNGSMLPNQPSGYRVAGYETQ
binding [1]: no binding
